Assay results published in paper PMC4336329 (PLoS ONE, 2015).
Hit rate of the full screen: of about 310,000 compounds, about 2,200 (0.71%) showed an effect of 50% or more. The effect is printed as a negative number. This is one part of the list.

target: human ether-à-go-go-related gene (hERG) potassium channel (human, UniProt Q12809); experiment: primary screen, population patch clamp on CHO cells stably expressing hERG
Sequence (Q12809 whole entry, looked up): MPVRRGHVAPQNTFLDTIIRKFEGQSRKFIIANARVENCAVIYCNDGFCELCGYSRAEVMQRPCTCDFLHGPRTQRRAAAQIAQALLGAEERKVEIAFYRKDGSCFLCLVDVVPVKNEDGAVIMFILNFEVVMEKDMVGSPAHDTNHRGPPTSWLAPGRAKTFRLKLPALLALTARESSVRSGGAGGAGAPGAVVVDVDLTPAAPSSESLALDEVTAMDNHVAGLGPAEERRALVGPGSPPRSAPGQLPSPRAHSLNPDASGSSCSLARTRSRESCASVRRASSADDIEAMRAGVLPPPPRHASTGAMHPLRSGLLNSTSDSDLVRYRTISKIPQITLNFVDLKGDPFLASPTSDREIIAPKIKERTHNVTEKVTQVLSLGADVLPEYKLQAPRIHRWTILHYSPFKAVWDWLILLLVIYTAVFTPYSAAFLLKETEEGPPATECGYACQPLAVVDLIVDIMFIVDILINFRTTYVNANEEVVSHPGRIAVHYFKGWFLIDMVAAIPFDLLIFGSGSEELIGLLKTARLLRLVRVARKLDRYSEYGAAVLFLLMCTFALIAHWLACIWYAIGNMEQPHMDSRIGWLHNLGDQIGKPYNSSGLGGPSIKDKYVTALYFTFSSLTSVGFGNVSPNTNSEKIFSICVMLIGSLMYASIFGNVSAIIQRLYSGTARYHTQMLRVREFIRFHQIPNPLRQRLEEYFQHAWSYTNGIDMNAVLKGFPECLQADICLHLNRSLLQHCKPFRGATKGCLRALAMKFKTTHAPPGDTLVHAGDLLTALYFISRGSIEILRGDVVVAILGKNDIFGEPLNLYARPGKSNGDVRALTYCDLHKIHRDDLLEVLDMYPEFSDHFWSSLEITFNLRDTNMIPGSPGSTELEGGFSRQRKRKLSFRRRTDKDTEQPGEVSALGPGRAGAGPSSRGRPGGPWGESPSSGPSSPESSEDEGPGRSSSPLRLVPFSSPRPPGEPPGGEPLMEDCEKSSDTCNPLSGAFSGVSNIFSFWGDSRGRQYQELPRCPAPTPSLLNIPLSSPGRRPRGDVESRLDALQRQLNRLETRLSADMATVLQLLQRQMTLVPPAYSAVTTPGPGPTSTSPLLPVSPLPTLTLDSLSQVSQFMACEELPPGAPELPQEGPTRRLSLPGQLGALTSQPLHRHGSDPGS

Structure (SMILES) | hERG current change (%, negative = inhibition) at 1uM
CN1CCN(c2ccccc2NC(=O)C(Cc2ccccc2)n2cccc2)CC1 (centres unmarked) | -26.5%
COc1cccc(-c2nc(-c3ccc(C(=O)O)cc3)no2)c1 | 3.03%
O=C(CSc1nc2ncccc2[nH]1)Nc1ccc2c(c1)OCO2 | 15.5%
CCOc1ccc(CCNC(=O)CCNC(=O)c2ccccc2Cl)cc1OCC | 15.6%
COCCN1CCN(C(=O)c2ccc3nc(Cc4ccc(OC)c(OC)c4)oc3c2)CC1 | 8.43%
N=c1c(C(=O)NCc2ccc(F)cc2)cc2c(=O)n3ccccc3nc2n1Cc1ccco1 | -85%
Cc1cc(C)n(CC(O)Cn2c3ccc(Cl)cc3c3cc(Cl)ccc32)c(=O)n1 (centres unmarked) | 11.6%
O=[N+]([O-])c1ccc(N2CCN(c3ccc(F)cc3)CC2)cn1 | -3.93%
CN(CC(=O)Nc1ccc(Cl)c(C(F)(F)F)c1)C(=O)Cc1n[nH]c(=O)c2ccccc12 | -1.77%
O=C(N/N=C/c1cccs1)c1cc(-c2ccc(Cl)s2)[nH]n1 | 13.4%
CCCCn1c(=O)cc(C)n(-c2ccccc2)c1=O | 10.5%
Cc1ccc(CCNC(=O)C2CCC(=O)N2C2CCCC2)cc1 (centres unmarked) | 7.19%
CCOC(=O)NC(=S)Nc1cccc(NC(=S)NC(=O)OCC)c1 | 12.3%
CC(=O)Nc1ccc(C(=O)N/N=C/c2ccc(F)cc2)cc1 | -4.54%
COC(=O)[C@@H](NC(=O)N1CCN(C(=O)C2COc3ccccc3O2)CC1)C(C)C (some centres unmarked) | 6.31%
CCOc1ccc(-c2cc(NC(=O)Cn3ncc4c3-c3ccccc3OC4)on2)cc1OCC | 18.6%
CC(=O)NC(CC(=O)NC12CC3CC(CC(C3)C1)C2)c1ccccc1 (centres unmarked) | 7.87%
Oc1ccc(Nc2nc(-c3cccs3)cs2)cc1 | 4.08%
COc1cc2c(CCNC(C)=O)c[nH]c2cc1Cl | 12.4%
COc1ccc(CCNc2oc(COc3ccccc3F)nc2C#N)cc1OC | 12.5%
O=C(Cn1ncc2c1-c1ccccc1OC2)Nc1ccc(S(=O)(=O)N2CCCCC2)cc1 | 14%
Cc1ccc(CNC(=O)C(=O)c2cn(CC(=O)N3CCOCC3)c3ccccc23)cc1 | 7.29%

Structure (SMILES) | hERG current change (%, negative = inhibition) at 1uM
CCN(CC)CCCNC1=C(Cl)C(=O)c2ccccc2C1=O | -0.29%
O=C(NCc1ccccn1)c1cccc([N+](=O)[O-])c1 | 4.66%
CCc1sc(C(=O)NC(C)C2CCCO2)cc1Br (centres unmarked) | 4.86%
Cc1ccc(N2C(=O)C3C4C=CC(C4)C3C2=O)cc1C (centres unmarked) | 11.7%
CC(Cc1ccccc1)NCC(=O)Nc1cc(N(C)C)nc2ccccc12.O=C(O)C(=O)O (centres unmarked) | -73.5%
CCN(CC)CCN1C(=O)C(=O)/C(=C(/O)c2cccc(OC)c2)C1c1ccccn1 (centres unmarked) | 8.19%
CCNC(=O)CC1C(=O)N(c2ccccc2)C(=O)N1CCc1ccc(OC)cc1 (centres unmarked) | -2.06%
CC(=O)Nc1ccc(SC[C@H](Cc2ccccc2)N2CC[C@@H](O)CCC2=O)cc1 | 5.62%
O=Cc1ccccc1-n1cncn1 | 8.15%
COc1ccc([N+](=O)[O-])cc1N(CC(=O)NCCC1=CCCCC1)S(C)(=O)=O | 8.48%
NNC(=O)c1nc[nH]c1C(=O)Nc1ccc(Cl)cc1C(=O)c1ccccc1 | 18.5%
Cc1cc(C(=O)CSc2n[nH]c(N)n2)c(C)n1-c1cc(F)ccc1F | 8.95%
COc1ccc(Cc2nnc(NS(=O)(=O)Cc3ccccc3)s2)cc1 | 12.2%
CCCn1cc(S(=O)(=O)CC(=O)Nc2ccc(OC)cc2OC)c2ccccc21 | 3.17%
CC(=O)C1C(c2ccc([N+](=O)[O-])cc2)C2C(C)=NN=C2CC1(C)O (centres unmarked) | 8.33%
CC(=O)C1=C(C)Nc2ncnn2C1c1ccc(O)cc1 (centres unmarked) | 11.5%
COc1ccc2cc(C#N)c(NC(C)C)nc2c1 | 20.5%
CC(C)c1ccc(-c2nnn(CCC(=O)O)n2)cc1 | 7.5%
Cc1ccc(CN2CCN(Cc3cc4ccccc4o3)CC2CCO)cc1 (centres unmarked) | -12.5%
O=C1SC(SCc2ccccc2)=N/C1=C\c1ccco1 | 5.9%
O=C(O)CSCCOc1ccc(OCCSCC(=O)O)cc1 | 6.56%
O=C(c1ccc(S(=O)(=O)N2CCCCCC2)cc1)N1CCC(CN2C(=O)c3cccc4cccc(c34)C2=O)CC1 | 6.64%
